Here are results for 49 compounds from PubChem BioAssay AID1508623 (National Center for Advancing Translational Sciences (NCATS), 2021).

About 450 (0.94%) of roughly 48,000 compounds were called active. About 19% were inconclusive and are not listed. The call rests on the fitted dose curve; in most records, active means well fitted inhibition curve with a large enough effect; inconclusive means small, poorly fitted or top-dose-only effect; inactive means no such curve, though single readings can be large or run the other way. This is one part of the list.
Potency means the concentration at half of the fitted maximal effect.

The nature of this test: Primary qHTS for Identification of Small Molecule Inhibitors of Huntingtin Promoter Activity. Further: nearly all actives have a fitted effect of over 50% in size. Conditions: HEK293 HTT promoter firefly luciferase reporter (activity 0% = vehicle and -100% = no light), 24 h; series mostly up to 57.5 µM; activity change, negative = inhibition: at the top concentration. In short, it runs like this:
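HEK293 luciferase promoter-reporter cells (2,500/well) plated 24 h, then compounds added at up to 57.5 uM final for 24 h at 37 °C. Firefly luminescence by Dual-Glo, normalized to vehicle (0%) and zero RLU (-100%).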
Background: In qHTS, concentration-response curves come from the screen itself.
For the compound `CS(=O)(=O)OCCCCOS(C)(=O)=O`, the activity change, negative = inhibition result is “inactive”.

Turning to `CCc1ccc2c(c1)c(=O)c(S(=O)(=O)c1ccc(F)cc1)cn2CC(=O)Nc1ccc(C)cc1C`, the “activity change, negative = inhibition” value was inactive: -31.3%.

Take `Cc1ccc(CNC(=O)C2CCCN(S(=O)(=O)c3cccc4nsnc34)C2)cc1` (centres undefined): the “activity change, negative = inhibition” value was inactive: 5.83%.

Take `CCCn1ccc2c(OCC(=O)NCc3ccc(C)cc3)cccc2c1=O`: the “activity change, negative = inhibition” value was inactive: 0%.

With `Cc1cccc(NC(=O)c2ccc(N(Cc3ccccc3)S(C)(=O)=O)cc2)c1`, the “activity change, negative = inhibition” value was inactive: 49.9%.

Consider `CCN(CCCNC(=O)c1cc2c(=O)n(C)c3ccccc3c2s1)Cc1ccccc1`, for which the “activity change, negative = inhibition” value is inactive: 21.7%.

Turning to `COc1ccc(CNC(=O)c2cnc3sc(N4CCCC4)nn3c2=O)cc1OC`, the “activity change, negative = inhibition” value is inactive: -21.1%.

Regarding `Cc1cc2ncn(CCCCOc3ccccc3)c2cc1C`, the “activity change, negative = inhibition” value is inactive: 0.12%.

For `COc1cc(-c2nnn(CC(=O)Nc3ccc(OC(F)(F)F)cc3)n2)cc(OC)c1OC`, the “activity change, negative = inhibition” value is inactive: -11.6%.

On to `CCOC(=O)c1c(C)[nH]c(CCC(=O)Nc2cc(C)ccc2OC)c1C`, for which the “activity change, negative = inhibition” value is inactive: -29.2%.

In the case of `CC1CCC(NC(=O)c2ccc3c(c2)N(Cc2ccccc2)C(=O)c2ccccc2S3=O)CC1` (centres undefined), the “activity change, negative = inhibition” value was inactive: -11.1%.

Regarding `CCOC(=O)c1cccc(NC(=O)CN2C(=O)c3ccccc3Sc3ncccc32)c1`, the “activity change, negative = inhibition” value is inactive: -2.4%.

`Cc1ccc(C(=O)NCc2ccc(N(C)C)cc2)cc1NC(=O)c1nsc2ccccc12`: the “activity change, negative = inhibition” value is inactive: -18.2%.

For `CN1C(C(=O)Nc2ccc(F)cc2F)=CC(c2ccco2)=NS1(=O)=O`, the “activity change, negative = inhibition” value is inactive: -7.01%.

For the compound `O=C(CSCc1ccccc1Cl)N1CCN(c2ccc(F)cc2)CC1`, the “activity change, negative = inhibition” value was inactive: -7.73%.

Take `Cc1nnc(NCc2ccccc2)c2c1nnn2Cc1ccccc1Cl`: the “activity change, negative = inhibition” value was inactive: -7.86%.

Take `Cc1cc2oc(C(=O)Nc3c(C(=O)Nc4ccccc4)oc4ccccc34)cc(=O)c2cc1C`: the “activity change, negative = inhibition” value is inactive: -21.1%.

For `Cc1cccc(C)c1NC(=O)c1oc2ccc3c(c2c1C)C(=O)CC(C)(C)O3`, the “activity change, negative = inhibition” value is inactive: -14.4%.

In the case of `Cc1cccn2c(=O)c(C(=O)NCCCN3CCCCC3C)c(O)nc12` (centres undefined), the “activity change, negative = inhibition” value is inactive: -13.8%.

For `O=C(Cn1ncc2c1-c1ccccc1OC2)N1CCN(c2ccccc2F)CC1`, the “activity change, negative = inhibition” value is inactive: -27.3%.

Regarding `COc1ccccc1CNC(=O)C1CCCN(S(=O)(=O)c2ccc3c(c2)CCCN3C(C)=O)C1` (centres undefined), the “activity change, negative = inhibition” value was inactive: -9.13%.

As to `CC(=O)NCc1c(I)c(NC(C)=O)c(I)c(C(=O)O)c1I`, the “activity change, negative = inhibition” value was inactive: 13%.

As to `N#CCNC(=O)c1ccc(-c2ccnc(Nc3ccc(N4CCOCC4)cc3)n2)cc1`, the “activity change, negative = inhibition” value was inactive: 2.56%.

For `COc1ccc(N2CCN(C(=O)c3cn(CC(C)C)c(=O)c4c3c3ccccc3n4C)CC2)cc1`, the “activity change, negative = inhibition” value is inactive: -18.7%.

In the case of `CCc1ccc(-c2nn(CC(=O)Nc3ccccc3)c3c2cnc2ccc(F)cc23)cc1`, the “activity change, negative = inhibition” value is inactive: 61.5%.

Take `CC(C)(C)C1CCc2c(sc(NC(=O)Cn3nnc(-c4ccccc4F)n3)c2C#N)C1` (centres undefined): the “activity change, negative = inhibition” value was inactive: -4.6%.

Take `O=C(Cn1c(=O)c2cccn2c2ccccc21)Nc1cc(F)ccc1F`: the “activity change, negative = inhibition” value is inactive: -6.45%.

As for `CCOc1ccc(N(C(=O)Cn2nnc3ccccc32)C(C(=O)NCc2ccccc2)c2ccc(OC)cc2)cc1` (centres undefined), the “activity change, negative = inhibition” value is inactive: -5.27%.

As for `COc1ccc(-c2[nH]ncc2C(=O)NCc2ccccc2C)cc1`, the “activity change, negative = inhibition” value is inactive: -21.1%.

Regarding `CC(=O)N1CCCc2cc(S(=O)(=O)N3CCC(C(=O)NCc4ccc(C)cc4)CC3)ccc21`, the “activity change, negative = inhibition” value is inactive: -11.2%.

`Cc1onc(-c2ccccc2Cl)c1C(=O)Oc1cc(F)cc(F)c1`: the “activity change, negative = inhibition” value is inactive: -35.4%.

As to `COC(=O)c1ccccc1NC(=O)Cn1c(=O)n(-c2cccc(OC)c2)c(=O)c2c(C)c(C(=O)N(C)C)sc21`, the “activity change, negative = inhibition” value is inactive: 4.43%.

For the compound `CCC(C(=O)NCCc1ccc(SC)cc1)n1nc(C)c2sc3ccccc3c2c1=O` (centres undefined), the “activity change, negative = inhibition” value is inactive: -19%.

With `CCN(CC)CCNC(=O)c1cn(CC)c2ccc(S(=O)(=O)N3CCOCC3)cc2c1=O`, the “activity change, negative = inhibition” value is inactive: -7.31%.

With `Cc1ccc(CCNC(=O)Cn2nc(-c3ccc(C)cc3)ccc2=O)cc1`, the “activity change, negative = inhibition” value is inactive: -21.2%.

Regarding `COc1ccc(OCC(=O)OCc2cc(=O)n3nc(C4CCCCC4)sc3n2)cc1`, the “activity change, negative = inhibition” value is inactive: -13.1%.

With `CC(=O)Nc1cccc(NC(=O)C(=O)NCCc2sc(-c3ccccc3)nc2C)c1`, the “activity change, negative = inhibition” value was inactive: -22.2%.

With `O=C(Cn1ncc2ccc(Cl)cc21)NCc1ccc(F)cc1`, the “activity change, negative = inhibition” value was inactive: 12%.

In the case of `OCc1c[nH]c2ccccc12`, the “activity change, negative = inhibition” value is inactive: -7.84% [at 116 µM].

For `Cc1ccc(C)c(NC(=O)CSc2ncc(S(=O)(=O)c3ccc(C)c(Cl)c3)c(=O)[nH]2)c1`, the “activity change, negative = inhibition” value was inactive: -17.5%.

Turning to `COCCNCCCn1c(C(=O)CF)c(-c2ccc(C)cc2)c2c(N)ncnc21`, the “activity change, negative = inhibition” value is inactive: -5.33%.

In the case of `COc1ccc(Cn2c(SCc3ccc(C(=O)NC(C)C)cc3)nc3cccnc32)cc1`, the “activity change, negative = inhibition” value is inactive: -18.8%.

For the compound `C=C1[C@H](n2cnc3c(=O)[nH]c(N)nc32)C[C@H](O)[C@H]1CO`, the “activity change, negative = inhibition” value was inactive: -1.96%.

Take `Cc1c(Cl)cccc1NC(=O)Nc1nnc(N2CCCCCC2)s1`: the “activity change, negative = inhibition” value was inactive: -11.5%.

On to `Cc1ccc(C(=O)Nc2cccc(C(=O)O)c2)cc1S(=O)(=O)N1CCCC1`, for which the “activity change, negative = inhibition” value was inactive: 22.9%.

`CCC1CN(C(=O)N2CCC(C(=O)NCc3cccc(C)c3)CC2)c2ccccc2O1` (centres undefined): the “activity change, negative = inhibition” value is inactive: -24.9%.

Consider `O=C(Cn1c(=O)nc(-c2ccccc2F)c2cc(Cl)ccc21)N1CCN(c2ccccc2F)CC1`, for which the “activity change, negative = inhibition” value was inactive: -11.2%.

As for `CCCCC(CC)CNC(=O)CN1C(=O)CSc2ccc(S(=O)(=O)N3CCOCC3)cc21` (centres undefined), the “activity change, negative = inhibition” value is inactive: -19.4%.

On to `CCOc1ccccc1N(CC)C(=O)c1cc2c(=O)[nH]c3ccc(C)cc3c2s1`, for which the Potency is active: 2510 nM.
